# In all, about 320,000 compounds went through this assay and about 200 (0.062%) were called active. Inconclusive means that the source gave no clear call. Such entries were picked first, then a sample of the others. Calls follow the shape of the dose curve; as a rule, active = well fitted activation curve with a large enough effect; inconclusive = small, poorly fitted or top-dose-only effect; inactive = no such curve, though single readings can be large or run the other way. No potency is given beside an inconclusive call; the fits are too rough.
# Experiment: qHTS assay for re-activators of p53 using a Luc reporter; also: nearly all actives have a fitted effect of over 45% in size; as to activity change, positive = activation: % of control where 0% means no effect
# Settings: H1299 p53-A138V BP100-luciferase reporter, luminescence, 24 h; series mostly up to 92.2 µM; activity change, positive = activation: at the top concentration
# Method in brief: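 p53-null H1299 cells stably carrying temperature-sensitive p53-A138V and a BP100-luciferase reporter were pinned with compounds (4-point, 1:5 series) and held 24 hrs at 37 deg C. Luminescence was read 10 min after detection reagent.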
# Potency is read from the fitted curve at half-maximal effect; tags tell the direction and shape of the fitted curve.
Compound,"activity change, positive = activation",Potency
Cc1ccc(-c2nnc(NC3CCCCC3)c3ccccc23)cc1S(=O)(=O)N1CCN(C)CC1,inactive: -1.82%,–
COc1ccc(CN2CCN(C(=O)CC(C)C)CC2)cc1Br,–,"inconclusive [activator, single point]"
COc1ccc(N2CCN(C(=O)c3ccc(CS(=O)c4cccc(C)c4)o3)CC2)cc1 (configuration not stated),inactive: -4.47%,–
O=C(CCC(=O)NC12CC3CC(CC(C3)C1)C2)NC1CCCCC1,–,"inconclusive [activator, single point]"
O=C1Nc2ccc(Br)cc2/C1=C/C(=O)c1ccc2c(c1)OCO2,inactive: -14%,–
Cc1ccc(S(=O)(=O)N(C)CC(=O)Nc2cc(C)ccn2)cc1,–,"inconclusive [activator, full curve, poor fit]"
CCOC(=O)/C=C(\C)N1N=C(c2ccccc2)CC1c1ccccc1 (configuration not stated),–,"inconclusive [activator, partial curve, poor fit]"
O=C(Nc1ccc(N2CCCCC2)cc1)c1ccc2c(c1)OCCO2,–,"inconclusive [activator, partial curve, poor fit]"
Cc1cc(NC(=O)CN(C)S(=O)(=O)c2ccc(-c3ccc(=O)[nH]n3)s2)ccc1Br,inactive: 12.3%,–
Cc1cc(C(=O)COC(=O)c2n[nH]c(=O)c3ccccc23)c(C)n1C,–,"inconclusive [activator, full curve, poor fit]"
Cn1ccsc1=NC(=O)c1ccc(Cl)c([N+](=O)[O-])c1,–,"inconclusive [activator, partial curve, poor fit]"
CN(C)CCOC1c2ccccc2-c2ccccc21,–,"inconclusive [activator, single point]"
Cc1nccc(-c2cc(-c3ccc(Cl)cc3Cl)no2)n1,–,"inconclusive [activator, partial curve, poor fit]"
CCCCN1CCc2c([nH]c3c(C)cccc23)C1=O,–,"inconclusive [activator, full curve, poor fit]"
CCCn1c(CCC(=O)Nc2ccccc2Cc2ccccc2)nc2cc(S(=O)(=O)N3CCOCC3)ccc21,inactive: 13.2%,–
COc1cccc(CNC(=O)Nc2cccs2)c1,–,"inconclusive [activator, partial curve, poor fit]"
CCn1c(SCc2ccccc2Cl)nc2nc3c(cc2c1=O)CCCC3,inactive: 9.26%,–
Cc1cc(-c2nc3ccccc3c(=O)o2)ccc1[N+](=O)[O-],–,"inconclusive [activator, single point]"
O=C(c1ccc([N+](=O)[O-])o1)N(Cc1nnc(-c2ccccc2Cl)o1)C1CC1,–,"inconclusive [activator, partial curve, poor fit]"
COc1ccc(C(=O)NC(=O)COC(=O)c2ccc3ncsc3c2)cc1,–,"inconclusive [activator, full curve, poor fit]"
Cc1nn(CCOc2cccc(Br)c2)c(C)c1[N+](=O)[O-],–,"inconclusive [activator, single point]"
O=C(O)/C=C\C(=O)Nc1ccccc1C#Cc1ccccc1,–,"inconclusive [activator, full curve, poor fit]"
COCC(C)N1CCC(n2nccc2NC(=O)c2ccc3c(c2)OCO3)CC1 (configuration not stated),–,"inconclusive [activator, single point]"

Compound,"activity change, positive = activation",Potency
Cc1cccc(C(=O)OCC(=O)NCC2CCCO2)c1O (configuration not stated),–,"inconclusive [activator, full curve, poor fit]"
CN(C(=O)c1cccc(Nc2ccc(-c3ccc4c(c3)OCCO4)nn2)c1)C1CCCCC1,–,"inconclusive [activator, partial curve, poor fit]"
c1ccc2c(c1)Cn1c-2nc2ccccc21,–,"inconclusive [activator, partial curve, poor fit]"
CC(C)(C)C1CCc2c(sc3c2C(=O)NC(c2ccco2)N3)C1 (configuration not stated),–,"inconclusive [activator, partial curve, poor fit]"
O=C(CCS(=O)(=O)c1ccc(Br)cc1)NCc1ccc(F)cc1,inactive: 4.51%,–
Cc1ccc2c(C)c(C(=O)N3CCCCC3CO)oc2c1C (configuration not stated),–,"inconclusive [activator, partial curve, poor fit]"
O=C(NCCc1ccc(Cl)cc1)c1cnc2n(c1=O)CCS2,–,"inconclusive [activator, single point]"
COc1ccc(NC(=O)c2ccc(C)o2)c([N+](=O)[O-])c1,–,"inconclusive [activator, partial curve, poor fit]"
CCN1CCN(Cc2ccc(NC(=O)Nc3ccccc3OC)cc2)CC1,–,"inconclusive [activator, partial curve, poor fit]"
Cc1occc1C(=O)N/N=C/c1ccc(Cl)c([N+](=O)[O-])c1,–,"inconclusive [activator, full curve, poor fit]"
CC(C)(C)S(=O)(=O)/C(C#N)=N/Nc1ccc(C#N)cc1,inactive: -3.43%,–
CC(=O)N/C(=C\c1ccccc1)C(=O)OCC(=O)N(C)C1CCS(=O)(=O)C1 (configuration not stated),inactive: -5.31%,–
O=c1[nH]c(-c2ccc(-c3cccc(Cl)c3)o2)nc2ccccc12,inactive: 24.8%,–
CCOC(=O)N1CCN(C(=O)CNC(=O)c2nn(-c3ccc(OC)cc3OC)c(=O)c3ccccc23)CC1,–,"inconclusive [activator, full curve, poor fit]"
S=C(NCCc1cnc[nH]1)NC1CCCC1,inactive: 5.06%,–
Fc1ccccc1C1c2[nH]c3ccccc3c2CCN1Cc1cccn1-c1ncccn1 (configuration not stated),inactive: 2.85%,–
CCOC(=O)C1(C)NC(c2ccc(O)cc2)C2C(=O)N(c3ccccc3)C(=O)C21 (configuration not stated),–,"inconclusive [activator, single point]"
COc1ccc(-c2csc(NC(=O)CC(C)C)n2)cc1,–,"inconclusive [activator, full curve, poor fit]"
COc1ccc(C(=O)N(C)c2ccccc2C(=O)NCCc2ccccc2)cc1,inactive: -4.93%,–
CCCNc1nc(-c2ccccc2)c(C(=O)OCC)cc1C#N,inactive: 16.1%,–
Cc1cc(NC(=O)CSc2nnc(-c3ccc(Cl)s3)o2)no1,–,"inconclusive [activator, single point]"
C(#CC12CC3CC(CC(C3)C1)C2)CN1CCOCC1,inactive: 2.15%,–
CCOC(=O)c1sc(=NC(=O)c2ccco2)n(C)c1C,–,"inconclusive [activator, partial curve, poor fit]"

Compound,"activity change, positive = activation",Potency
O=C(Nc1nc2ccccc2[nH]1)c1ccc(Br)o1,inactive: 0.194%,–
CCOc1ccc(-c2nc(C#N)c(NCc3ccc4c(c3)OCO4)o2)cc1,–,"inconclusive [activator, full curve, poor fit]"
COc1ccc(C(CNC(=O)c2cccc(S(=O)(=O)NCc3ccccc3)c2)N(C)C)cc1 (configuration not stated),–,"inconclusive [activator, partial curve, poor fit]"
CC1Cc2ccccc2N1C(=O)COC(=O)c1ccc([N+](=O)[O-])o1 (configuration not stated),–,"inconclusive [activator, partial curve, poor fit]"
COc1cccc(-c2noc(-c3ccc(Cl)nc3)n2)c1,–,"inconclusive [activator, partial curve, poor fit]"
CCN(CC)S(=O)(=O)c1ccc(NC(=O)Cc2cccs2)cc1,inactive: 1.99%,–
COc1ccccc1/C=C/C(=O)NC(=S)Nc1ccccn1,–,"inconclusive [activator, partial curve, poor fit]"
COc1ccc(Cc2nc(-c3ccccn3)no2)cc1,–,"inconclusive [activator, partial curve, poor fit]"
Cc1cc(C)c(CN2CCCC(CNC(=O)c3ccc(F)cc3)C2)c(-n2cccn2)c1 (configuration not stated),inactive: -3.14%,–
O=C(COc1ccccc1)N1CCN=C1c1ccccc1,–,"inconclusive [activator, single point]"
CCn1ncc(Br)c1C(=O)Nc1cc(C(=O)OC)ccc1C(=O)OC,–,"inconclusive [activator, partial curve, poor fit]"
COc1ccc(-c2nnc(SCC(=O)N3CCCC3)o2)cc1,–,"inconclusive [activator, full curve, poor fit]"
CCOc1ccc(-c2nc(-c3ccccc3C)no2)cc1,–,"inconclusive [activator, full curve, poor fit]"
CC(=O)c1cc(OC(=O)c2ccncc2)ccc1OC(=O)c1ccncc1,–,"inconclusive [activator, single point]"
COc1cccc(OC)c1C(=O)OCCCOC(=O)c1c(OC)cccc1OC,inactive: -11.9%,–
Cc1ccc(NS(=O)(=O)c2c(C)ccc3nsnc23)c([N+](=O)[O-])c1,inactive: 6.78%,–
COc1ccc(NC2=C(NCCO)C(=O)c3ccccc3C2=O)cc1,–,"inconclusive [activator, partial curve, poor fit]"
CC1(C)C([N+](=O)[O-])C(c2ccc(Cl)cc2)NC(c2ccc(Cl)cc2)C1[N+](=O)[O-] (configuration not stated),–,"inconclusive [activator, single point]"
Cc1cccc2nc(CSc3ccccc3C(=O)O)cn12,–,"inconclusive [activator, partial curve, poor fit]"
COc1ccc(CN2CCN(Cc3ccc(C)cc3)CC2)c(OC)c1,inactive: -0.999%,–
CN(C)CCCN(C(=O)c1ccc(Cl)s1)c1nc2cc3c(cc2s1)OCO3,–,"inconclusive [activator, single point]"

# Reference: PubChem BioAssay AID504706 (National Center for Advancing Translational Sciences (NCATS), 2011)
